# From the supplement of paper PMC12645437, “Orthogonal IMiD-Degron Pairs Induce Selective Protein Degradation in Cells” (ACS Chemical Biology, 2025)
# The other results are listed elsewhere or left out.
# Target: no compound (DMSO)
# Experiment: log2 fold change of degron read counts, EGFP-low vs EGFP+ sorted cells; higher = lower degron-EGFP level without compound (poor expression or instability)
# Conditions: compound: DMSO control; 18 h
# 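Also: jurkat cells carrying a lentiviral library of mutant zinc finger degrons fused to EGFP plus mCherry, mCherry+ cells FACS sorted, degron abundance counted by next-generation sequencing.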
row,Sequence,log2 fold change of degron read counts
1,FACPICGRNFTQKGNLLRHIKL,-0.353
2,FNCEICGRCFTQKGNLLRHIKL,-1.35
3,FICEVCGARFTQKGNLLRHIKL,-1.07
4,FWCPICGRNFTQKGNLLRHIKL,0.116
5,FECNQCGAVFTQKGNLLRHIKL,-1.57
6,FGCPVCGALFTQKGNLLRHIKL,-0.454
7,FRCEICGHKFTQKGNLLRHIKL,-0.961
8,FQCNQCGHMFTQKGNLLRHIKL,-0.469
9,FLCDQCGAAFTQKGNLLRHIKL,-1.11
10,FACDICGAEFTQKGNLLRHIKL,-1.41
11,FGCEICGHTFTQKGNLLRHIKL,-1.14
12,FQCSVCGHTFTQKGNLLRHIKL,-0.899
13,FICEQCGAPFTQKGNLLRHIKL,-1.48
14,FECPICGAEFTQKGNLLRHIKL,-0.648
15,FQCPICGAIFTQKGNLLRHIKL,0.185
16,FYCDVCGAQFTQKGNLLRHIKL,-1.3

row,Sequence,log2 fold change of degron read counts
1,FECPQCGAFFTQKGNLLRHIKL,-0.793
2,FGCPQCGAYFTQKGNLLRHIKL,0.287
3,LECEICGFQCTQKGNLLRHIKL,-1.35
4,FYCDICGAVFTQKGNLLRHIKL,-0.494
5,FVCPVCGAHFTQKGNLLRHIKL,-0.096
6,LLCPICGFNCTQKGNLLRHIKL,1.3
7,FCCEICGHTFTQKGNLLRHIKL,-2.08
8,FSCPICGAYFTQKGNLLRHIKL,0.728
9,FECEICGRCFTQKGNLLRHIKL,-2.02
10,FLCNQCGAWFTQKGNLLRHIKL,0.549
11,LGCPICGFDCTQKGNLLRHIKL,0.0768
12,FLCDICGAMFTQKGNLLRHIKL,-1.19
13,FRCPICGHAFTQKGNLLRHIKL,-0.476
14,FVCPICGRAFTQKGNLLRHIKL,-0.423
15,FQCPVCGAIFTQKGNLLRHIKL,-0.393
16,FWCDVCGAVFTQKGNLLRHIKL,0.0936
